Experimental data taken from PMC12136788.
Some of the results follow.

T1: UNK ZnF1-3 (human, UniProt Q9C0B0 31-174)
T1 sequence: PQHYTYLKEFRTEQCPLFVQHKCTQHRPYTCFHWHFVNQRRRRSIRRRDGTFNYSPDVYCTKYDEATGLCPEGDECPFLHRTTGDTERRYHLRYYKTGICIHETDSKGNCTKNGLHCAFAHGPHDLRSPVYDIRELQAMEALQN

B1: 20143393_20143513_3609_3pUTR_ENSG00000173674_ENST00000379607|human|control|control (ssRNA)
RNA: GGGAGUUCUACAGUCCGACGAUCACAUUCUCCAAAUUGCUCAGUUCAUUCUAUACCUGAGAGUCUUGUGUCUUUUCACAUUUUGCUCUUUUCUGAAUAGGAAGAAAAAAAGCAAAGAUAAAAAGGAUGGUAGUUUAGGGUAAACAACAGAGGAUUGAGCAUCA
B2: 60974852_60976337_911_3pUTR_ENSMUSG00000042506_ENSMUST00000041683|mouse|control|control (ssRNA)
RNA: GGGAGUUCUACAGUCCGACGAUCGAGGAACUCAUGUGCGUCCUGCUGCUCAUAACCCGCCAGGUGCCGGGCGUGCGUCCACACCAGGUGCAGCAGCUUGUAUGGAAUGUGUGGGGAGCGGUGCCCUGAGUAAAACUCCUGGAACAACAGAGGAUUGAGCAUCA
B3: chr21:30439091:30439092:-_ENSG00000156261_ENST00000286788|hu_mus|FALSE|FALSE (ssRNA)
RNA: GGGAGUUCUACAGUCCGACGAUCCAGAAUCUUACAUACUCUGAUGUUAUCAACAUUGAAAUUGCCAGAAUCAGGAAAGAUAGAAACACAAGCCUGAGCAAUAAGCUUGGCCAAAAACGUCUCGCUGCCGUACUGCUUACUCAUCAACAGAGGAUUGAGCAUCA
B4: chr17:60770872:60770873:+_ENSG00000011028_ENST00000303375|hu_hu|hu_hu_hu_mus_True|88_98 (ssRNA)
RNA: GGGAGUUCUACAGUCCGACGAUCUCUUUAAAAAAAAUUCCUUUUUUUUUAAAAACAAUAGCACAUUUCGAGAAUCAAGAACUACAAUAGAGGGUCCGCUUUGAGUUUUUGUUCACAUCGUCCUGCACUGGGACACGGGGACUGCAACAGAGGAUUGAGCAUCA
B5: chr12:39763582:39763583:-_ENSG00000139116_ENST00000544797|hu_hu|motif|central (ssRNA)
RNA: GGGAGUUCUACAGUCCGACGAUCCUCUAAGAAUUGGGCAUUCACUUUAAAAUCUGGAGCAGGAAGCCCAUUUUUAAUUGCGGUGUGUUUUUUUUCUUCAAUACUCUUAAAAAGGUGUUUAACAGCUCGAGAAAUAAUACCCAGCAACAGAGGAUUGAGCAUCA
B6: chr15:88994910:88994911:-_ENSMUSG00000036606_ENSMUST00000109331|mus_mus|FALSE|FALSE (ssRNA)
RNA: GGGAGUUCUACAGUCCGACGAUCGUUCUCCACCAGGCUCAUGGCCUCACGGCAGUCAUAGAAGGGAUACUGGUGGGAGGUGAGGAAGACACUGCCGCUUUUUAAGAGGAGCUGGAUGCUCACGUCAACAUGGUCUUGGCCUGGCAACAGAGGAUUGAGCAUCA
B7: chr16:94637918:94637919:+_ENSMUSG00000040785_ENSMUST00000117648|mus_mus|FALSE|FALSE (ssRNA)
RNA: GGGAGUUCUACAGUCCGACGAUCAUCCUGGUGUGCAGCUCUGGAAGAUUUUGAAAACUGUUUCUCCAAAAUGCUUUUCAAAUCUACUUGUAAACUCACUUCUGAAUUAGAACUGGGCUUUUCUGAUUCAUUGUUUCGUGAUUUCAACAGAGGAUUGAGCAUCA
B8: chr7:135612270:135612271:-_ENSG00000105887_ENST00000393085|hu_mus|hu_hu_hu_mus_False|78_108 (ssRNA)
RNA: GGGAGUUCUACAGUCCGACGAUCGUUUCUGAGAUGUAUGUUAAAUAGUACUUCAGUAACAAAACUUACUUAACCUUUUAUUAAUGCGUGUUGUACCAAAAGCAGACAUUUUAGCUUCAUUUAUUCAAAAAUAUUAACAUUAAGCAACAGAGGAUUGAGCAUCA
B9: chr6:75947695:75947696:-_ENSG00000112695_ENST00000509698|hu_mus|FALSE|FALSE (ssRNA)
RNA: GGGAGUUCUACAGUCCGACGAUCACGACAUUAGUUCUGCUUCUUGGGAAAUGCAGCCAUAGCUAACAGAUAGAUGGCAUAGGCUGUGCCACCAAGCGUCAGAGCCAUUGUGGCUCUGUAGAGGAGGGCAUCAGAUGCCCCGCCCAACAGAGGAUUGAGCAUCA
B10: chr2:216981417:216981418:+_ENSG00000079246_ENST00000392132|hu_hu|hu_hu_hu_mus_True|1_58 (ssRNA)
RNA: GGGAGUUCUACAGUCCGACGAUCCUGAUACUGGUCCUUGCCAGCAAGGGCAUUAUCAGUGCCAUCUGUGCCAUAGAGGACUAAAGCAAUCUCAUCUUUGCUCUCCGAAAAUACCUGUCGUUGGACAAACAUAGUCAUCACCUUCAACAGAGGAUUGAGCAUCA
B11: chr7:151048522:151048523:+_ENSG00000013374_ENST00000566856|hu_mus|hu_hu_hu_mus_True|8_8 (ssRNA)
RNA: GGGAGUUCUACAGUCCGACGAUCCUGUUUCUUAUUUAUUACGAUCUUGAUGUAAUUUUCUUGAAAUCCGAAAGUUUCAGCUAUUUGACACCUCAGGUCUCUACCAGUGACAUGCAAGCGGGUCUCCAACAAGUUUUUCUUAUCCAACAGAGGAUUGAGCAUCA
B12: chr3:148802587:148802588:-_ENSG00000071794_ENST00000310053|hu_mus|hu_hu_hu_mus_False|8_8 (ssRNA)
RNA: GGGAGUUCUACAGUCCGACGAUCUCCAACAACUUGUCCUCUCAUAGUUCCAAAUAAAACCAAAUCUUGCUCUUCAUCACUCGUUAGGAAGUCAUCUGGAGGAAUAAUGUCUUGGAAUUCAAAAUGUGGAAAGAAAGUUGAGUACAACAGAGGAUUGAGCAUCA
B13: chr17:35122734:35122735:+_ENSMUSG00000007050_ENSMUST00000114011|mus_hu|FALSE|FALSE (ssRNA)
RNA: GGGAGUUCUACAGUCCGACGAUCCCAUCCCCAAAUGAAUCACAUGCUGCCCUGGAAAGACCUAGGAAACUCUCCUACCAUCUCCAGAGAAGUAGUGAGAAAGGCAGGUGCUGGGGACUGGGAAGGCUUUGAAGUUUCCCAGCCCAACAGAGGAUUGAGCAUCA
B14: chr7:151622947:151622948:-_ENSMUSG00000031078_ENSMUST00000033407|mus_mus|FALSE|FALSE (ssRNA)
RNA: GGGAGUUCUACAGUCCGACGAUCGAAGAGCCCGUAUCUGCCCUUGCACACCCCACGCCACCAGCCAUCGUCAAUCAUUUCUAUGUUGGUGAUGAUGUCAUCAGGGUCAAAGGAGAUCUCAUCAUCGCCAGCAGCCUGGUAGUCCAACAGAGGAUUGAGCAUCA
B15: 101970610_101970730_1729_CDS_ENSG00000158301_ENST00000332262|human|control|control (ssRNA)
RNA: GGGAGUUCUACAGUCCGACGAUCCUCCUCCCUGACUCUGGGCCUGAACAAGUUAUUGGUAUUUUCUCCAACCCAGAAGGAGAAUGGGUUGCUGGCCUCAUCCUCAGAUCCAGACCAGGAAUCAACAUAGGCUUCUUGCUUGGACAACAGAGGAUUGAGCAUCA
B16: chr3:118931466:118931467:-_ENSG00000121578_ENST00000480814|hu_hu|motif|central (ssRNA)
RNA: GGGAGUUCUACAGUCCGACGAUCACUGUGAUGUUGAUAUAUAAAGGAUUGUGUUCCACAGAUACUAAUUUAUAAGAACAACGGCUCAACCCAUCUGUUCUCCAGACUCGUGACACUUGGUGUAAGAGCUUCAUCCGUUCUGCGCAACAGAGGAUUGAGCAUCA
B17: chr9:69863160:69863161:+_ENSMUSG00000033543_ENSMUST00000118198|mus_mus|FALSE|FALSE (ssRNA)
RNA: GGGAGUUCUACAGUCCGACGAUCCUGUAUGAGCUCAUCAAGGCUCUCUUGAAGACUGUUCCCCAAAGUUGUAUUUCUGUAUAACUGAUAGGCCAUGGCUUAAAAGGAAGCAAUUACUUUUUCUUCAGGCUUGCAUUGAUGUCCCAACAGAGGAUUGAGCAUCA
B18: chr7:116558156:116558157:+_ENSG00000198898_ENST00000458284|hu_mus|FALSE|FALSE (ssRNA)
RNA: GGGAGUUCUACAGUCCGACGAUCGAGAAGGAACAGAGAGAGAGAGAAAGAAAGAGAGAGAGAGAGAGACUUCGAAAGGAGGAACAGAGUAAGAUACUUAUCUAAACUCAUGUCCAACCCUCUGAACAAAGGAAAUGGAACAGGCAACAGAGGAUUGAGCAUCA
B19: chr3:130683820:130683821:+_ENSG00000017260_ENST00000359644|hu_hu|FALSE|FALSE (ssRNA)
RNA: GGGAGUUCUACAGUCCGACGAUCACCAUCUGAAGUAAAUAUGUGAGUAACAGUCAUUUCAUUCUUCGUCAGUGUUCCAGUUUUAUCUGAACAAAUCACAUUACAGCAGCCCAGAGUUUCAACAAUAGGCAGCUUUUUCACAAUCAACAGAGGAUUGAGCAUCA
B20: 83681929_83683676_522_CDS_ENSMUSG00000032262_ENSMUST00000034796|mouse|control|control (ssRNA)
RNA: GGGAGUUCUACAGUCCGACGAUCUCCUGCGUUGUAUGAUCCCAUGAAUAGCUCUCUGAAGAUGAAAAGGUUAAGCAAAACCAUGCCAAAAUUAUAGAUUAUGAGUACUAAGCGCAUUUGGAACGGCUCGCGGUCUUUCAUCCACAACAGAGGAUUGAGCAUCA
B21: 36908727_36908847_66_3pUTR_ENSMUSG00000024811_ENSMUST00000025729|mouse|control|control (ssRNA)
RNA: GGGAGUUCUACAGUCCGACGAUCUCGGCUCCGUGAGCCCCGGCUGCCCCACCGCGGUGGAGGCAGCGCGAACCCGCUCGCCGAGCCCCGAAGCGACGCGACGGCGGAAGCGGCCGAGACCACUCCUGCCAGCUCGGUCGGGUCCAACAGAGGAUUGAGCAUCA
B22: chr7:141438946:141438947:+_ENSG00000106028_ENST00000265304|hu_mus|hu_hu_hu_mus_True|58_58 (ssRNA)
RNA: GGGAGUUCUACAGUCCGACGAUCGACGAAAUACCUGUAACACAGGUCUUCGAAACAUGGCUUCUGUUUUUCUUACAGUCUAAUCUUUAGGCUUUUCCUAAAGGAAAGAAAGAAAAGAGAAAAAUGAUAAAUCAAGAAACUACACAACAGAGGAUUGAGCAUCA

target: T1, UNK ZnF1-3; assay: nsRBNS (natural sequence RNA bind-n-seq); RBNS binding buffer (assumed for nsRBNS): 25 mM Tris pH 7.5, 150 mM KCl, 3 mM MgCl2, 0.01% Triton X-100, 500 ug/ml BSA, 20 U/ml SUPERase-In, 4 C; UNK is unkempt and MSI1 is Musashi-1; names of the RNAs are library labels; protein concentration not given here; high values mean tight binding

Row | Binder | binding signal
1 | B1 | 0.859 enrichment R
2 | B2 | 0.772 enrichment R
3 | B3 | 1.21 enrichment R
4 | B4 | 1.13 enrichment R
5 | B5 | 2.36 enrichment R
6 | B6 | 1.26 enrichment R
7 | B7 | 0.581 enrichment R
8 | B8 | 0.741 enrichment R
9 | B9 | 0.95 enrichment R
10 | B10 | 0.832 enrichment R
11 | B11 | 0.699 enrichment R
12 | B12 | 1.29 enrichment R
13 | B13 | 0.748 enrichment R
14 | B14 | 1.12 enrichment R
15 | B15 | 0.696 enrichment R
16 | B16 | 0.75 enrichment R
17 | B17 | 0.917 enrichment R
18 | B18 | 2.46 enrichment R
19 | B19 | 1.17 enrichment R
20 | B20 | 1.16 enrichment R
21 | B21 | 0.195 enrichment R
22 | B22 | 0.51 enrichment R
